Measured values from patent publication US20040166530A1 (BAYLOR COLLEGE OF MEDICINE, published 2004).

Biological target: T1, Myc-tagged Cdc53 (Cdc53^M) (S. cerevisiae, UniProt Q12018 1-815)
T1 construct: Expressed from baculovirus in insect cells; not shown: N-terminal Myc tag
T1 sequence (looked up): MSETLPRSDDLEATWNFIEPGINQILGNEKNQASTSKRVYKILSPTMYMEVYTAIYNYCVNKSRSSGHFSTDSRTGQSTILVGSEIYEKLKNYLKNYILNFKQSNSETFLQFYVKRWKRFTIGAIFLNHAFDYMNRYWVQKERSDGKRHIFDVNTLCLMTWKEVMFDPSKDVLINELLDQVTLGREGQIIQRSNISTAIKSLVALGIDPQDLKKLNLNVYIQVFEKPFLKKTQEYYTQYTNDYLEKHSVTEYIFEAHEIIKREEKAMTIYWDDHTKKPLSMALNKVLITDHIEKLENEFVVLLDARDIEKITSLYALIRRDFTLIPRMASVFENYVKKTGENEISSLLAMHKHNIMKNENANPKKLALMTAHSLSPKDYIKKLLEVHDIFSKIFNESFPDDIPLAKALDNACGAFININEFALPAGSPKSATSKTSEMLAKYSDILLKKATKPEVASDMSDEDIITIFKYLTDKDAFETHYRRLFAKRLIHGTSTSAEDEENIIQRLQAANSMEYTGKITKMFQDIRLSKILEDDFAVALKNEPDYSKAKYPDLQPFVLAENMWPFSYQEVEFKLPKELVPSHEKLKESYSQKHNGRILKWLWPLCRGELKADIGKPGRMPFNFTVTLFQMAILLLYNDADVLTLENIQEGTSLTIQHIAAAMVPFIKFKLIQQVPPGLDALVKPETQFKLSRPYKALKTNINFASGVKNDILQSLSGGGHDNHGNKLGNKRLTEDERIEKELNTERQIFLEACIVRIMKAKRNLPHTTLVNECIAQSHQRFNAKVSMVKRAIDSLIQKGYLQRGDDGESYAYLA
Assay: anti-Myc immunoprecipitation from co-infected insect cells, immunoblot (FIG. 1A)
Source text: Insect cells were co-infected with various combinations of baculoviruses expressing Myc-tagged Cdc53 (Cdc53^M), Cdc34, Cdc4, and Skp1. Anti-Myc immune complexes from lysates of these infected cells were immunoblotted to identify associated proteins (See, FIG. 1A). […] Thus, one function of Skp1 is to facilitate association of Cdc53 with Cdc4. […] Furthermore, it appeared that Cdc53 can simultaneously associate with both Cdc34 and Skp1, as the association of Gst-Skp1 with Cdc34 is enhanced in the presence of Cdc53^M (See, FIG. 1C).
For recombinant protein expression and assembly of complexes, 4×10⁵ insect cells (Hi5, Invitrogen) were infected with the indicated virus combinations for 40 hours. These combinations included baculoviruses expressing Myc-tagged Cdc53 (Cdc53^M), Cdc34, Cdc4, and Skp1. Cells were then harvested and disrupted in lysis buffer (50 mM Tris-HCl (pH 7.5), 150 mM NaCl, 0.5% Nonidet P40, 10 mM NaF, 10 mM β-glycerol phosphate, 1 mM PMSF, and 5 μg/ml each leupeptin, antipain, and aprotinin). For isolation of protein complexes, typically about 3 ml of lysis buffer was used per 0.5×10⁸ cells.
To examine the assembly of recombinant yeast proteins, 0.4 ml lysate were typically derived from 2×10⁶ cells. […]

B1: Skp1 (other)
chain: not shown
notes: Untagged, expressed from baculovirus in insect cells; also called yeast Skp1
  binding result: binds
